Out of some 310,000 compounds screened, about 14,000 (4.5%) showed an effect of 50% or more. Effects have a minus sign here. The list shows a part of the results.
Target: human ether-à-go-go-related gene (hERG) potassium channel (human, UniProt Q12809)
Assay: primary screen, population patch clamp on CHO cells stably expressing hERG
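Further: peak tail current of the secondary pulse compared with the same well before compound.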

Chain of human ether-à-go-go-related gene (hERG) potassium channel (Q12809 whole entry, looked up): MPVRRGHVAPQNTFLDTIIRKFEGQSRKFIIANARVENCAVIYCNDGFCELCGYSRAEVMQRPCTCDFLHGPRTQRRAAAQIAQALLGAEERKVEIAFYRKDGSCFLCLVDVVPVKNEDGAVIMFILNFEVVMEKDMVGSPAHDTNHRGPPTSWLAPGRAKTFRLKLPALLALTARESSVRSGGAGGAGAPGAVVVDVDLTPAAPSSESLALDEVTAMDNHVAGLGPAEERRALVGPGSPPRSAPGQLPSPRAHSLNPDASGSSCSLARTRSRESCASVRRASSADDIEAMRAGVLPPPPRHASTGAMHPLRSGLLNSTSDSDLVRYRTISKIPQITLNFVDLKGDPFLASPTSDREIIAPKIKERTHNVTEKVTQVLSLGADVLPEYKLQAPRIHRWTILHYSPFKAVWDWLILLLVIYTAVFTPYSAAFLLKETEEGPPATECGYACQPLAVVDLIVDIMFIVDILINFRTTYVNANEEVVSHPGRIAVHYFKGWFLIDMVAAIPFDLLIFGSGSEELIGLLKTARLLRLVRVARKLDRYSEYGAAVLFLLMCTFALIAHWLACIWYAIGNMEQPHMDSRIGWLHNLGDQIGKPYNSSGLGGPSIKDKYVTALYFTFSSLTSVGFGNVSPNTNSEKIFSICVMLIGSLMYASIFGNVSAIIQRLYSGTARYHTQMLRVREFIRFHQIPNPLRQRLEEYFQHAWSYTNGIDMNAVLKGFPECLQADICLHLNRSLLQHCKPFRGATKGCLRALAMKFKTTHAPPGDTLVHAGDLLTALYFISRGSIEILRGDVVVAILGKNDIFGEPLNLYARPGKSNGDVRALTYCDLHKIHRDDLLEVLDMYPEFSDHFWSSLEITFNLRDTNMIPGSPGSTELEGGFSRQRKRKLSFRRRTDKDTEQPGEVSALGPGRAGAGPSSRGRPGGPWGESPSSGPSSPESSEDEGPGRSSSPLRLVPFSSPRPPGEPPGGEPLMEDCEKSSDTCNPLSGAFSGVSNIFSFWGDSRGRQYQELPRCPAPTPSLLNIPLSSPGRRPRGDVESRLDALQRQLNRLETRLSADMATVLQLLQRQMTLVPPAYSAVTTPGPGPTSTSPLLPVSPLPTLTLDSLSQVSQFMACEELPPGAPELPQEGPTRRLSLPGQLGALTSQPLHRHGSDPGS

SMILES	hERG current change (%, negative = inhibition) at 10uM
CC(=O)c1ccc(-c2ccc([C@H]3[C@@H]4C=CCC[C@@]4(C)C(=O)N3Cc3ccccc3)c(F)c2)cc1	5.22%
C=CCNC(=O)c1ccccc1NC(=O)c1ccc(Cl)c(S(=O)(=O)Nc2cccc(C)c2C)c1	-15%
Cc1csc(NC(=O)c2ccc(Cl)nc2)n1	-3.42%
CCc1nnc(NC(=O)CSc2nnnn2-c2cccc(C(=O)OC)c2)s1	8.39%
C=CCOc1ccc(C=Nc2ccc(OC)cc2)c(O)c1	24%
CCCS(=O)(=O)c1c(S(=O)(=O)CCC)c2c(N)cccn2c1C(=O)OC	-20%
COc1cc(OC)cc(C(=O)OCc2ccc([N+](=O)[O-])cc2)c1	5.31%
CC1(C)CC(c2nc(-c3ccc([N+](=O)[O-])cc3)cs2)CCO1 (centres unmarked)	-29.8%
CNC(=O)c1c(NC(=O)c2ccc(S(=O)(=O)N3CCCCC3)cc2)sc2c1CCN(C(C)C)C2	-65.8%
O=C(Nc1ccccc1F)c1ccc(Cn2cc(Cl)cn2)cc1	2.19%
CC(C)OCC1CO1 (centres unmarked)	6.9%
COc1ccc(N2C(=O)CC(N3CCC(n4c(=O)[nH]c5ccccc54)CC3)C2=O)cc1 (centres unmarked)	-19.9%
CN1CCN(C(=O)c2cnn(-c3ccccc3)c2NC(=O)c2cccs2)CC1	-29.2%
OC[C@@H](O)[C@H](O)C(/C=N/Nc1ccccc1)=N\Nc1ccccc1	20.1%
COc1ccc(C(=O)Nc2ccc(CN3CCOCC3)cc2)cc1Br	-35.1%
Cc1ccccc1OCC1Cn2c(nc3c2c(=O)n(C)c(=O)n3C)O1 (centres unmarked)	14.2%
Cc1ccc(CC2CC(=O)N(c3cc(C)on3)C2=O)cc1 (centres unmarked)	11.1%
CCOc1ccc2[nH]c(C)c(CN3CCCCCC3)c(=O)c2c1	-5.41%
COC(=O)c1c(-c2cccnc2)csc1NC(=O)c1ccc2c(c1)OCO2	10.8%
COc1ccc(S(=O)(=O)N2CCCCC2)cc1NC(=O)CCNC(=O)c1ccccc1Cl	-11%
Cc1cc(C)c(NC(=O)Cn2c(=O)c3cccn3c3ccccc32)c(C)c1	1.88%
Cc1ccc2nc(SCC(=O)NC3CCCCC3)nc(=O)n2c1	-14.5%

SMILES	hERG current change (%, negative = inhibition) at 10uM
CC1CCN(C(=S)c2ccccc2O)CC1	5.57%
COc1ccccc1NC(=O)C1CCN(c2ncnc3c2nc2n3CCCCC2)CC1	-6.75%
COC(=O)C1=C(C)N=C2SC(C)C(=O)N2C1c1cccc(F)c1 (centres unmarked)	12.2%
O=C(COC(=O)c1ccc(Cl)cc1O)Nc1cccnc1Cl	6.61%
CC(C)(C)N(Cc1ccccc1)C(=O)CN1C(=O)c2ccccc2C1=O	16.5%
COc1ccc(CN2CCN(c3ccccc3OC)CC2)c(OC)c1.O=C(O)C(=O)O	-64.2%
CO/N=C\CC(=O)Nc1ccc(Cl)cc1Cl	10.7%
O=C(Cn1cnc2ccccc2c1=O)Nc1ccc(N2CCOCC2)cc1	10.3%
COc1cccc2oc3cc(C#CC4(O)CCCCC4)ccc3c(=O)c12	14.3%
CCN(CCCn1c(SCC#N)nc2ccccc2c1=O)c1ccccc1	-11.9%
COc1ccccc1-c1noc(COC(=O)c2ccc(Br)o2)n1	-36.3%
O=C(CSc1n[nH]c(=O)n1-c1ccccc1)N1CCOCC1	11.3%
O=S(=O)(Nc1nccs1)c1ccc(NCc2cc(Br)cc(Br)c2O)cc1	8.1%
Cc1ccn2cc(C(=O)Nc3nnc(C)s3)nc2c1	2.8%
CCN(CC(=O)Nc1ccccc1C(F)(F)F)C(=O)CCS(=O)(=O)c1ccc(Cl)cc1	-6.4%
CCn1cc(C(=O)OCc2ccc(F)cc2)c(=O)c2ccc(C)nc21	-22.8%
O=[N+]([O-])c1ccc(CNc2cccc(Cl)c2)s1	-28.3%
CN(C)C=Nc1nonc1-c1ccc(Cl)cc1	12.2%
COc1cc(NC(=O)CN2CC(c3ccccc3)CC2=O)cc(OC)c1 (centres unmarked)	10.7%
CCc1nnc(NC(=O)CSc2nnc(COc3ccccc3)n2Cc2ccccc2)s1	5.71%
NCCc1ccccc1	17.5%
Cc1ccc(SCC(=O)OC(C)C(=O)NC2CCCCC2C)c(C)c1 (centres unmarked)	15.9%

SMILES	hERG current change (%, negative = inhibition) at 10uM
CCN(CC)CCCNC(=S)N1CCN(c2nc(-c3ccc(F)cc3)cs2)CC1	-29.6%
CC(=O)OCC1OC(OCc2cn(C[C@H]3CC[C@H](Cn4cc(COC5OC(COC(C)=O)C(OC(C)=O)C(OC(C)=O)C5OC(C)=O)nn4)O3)nn2)C(OC(C)=O)C(OC(C)=O)C1OC(C)=O (some centres unmarked)	7.83%
CCN(CC(=O)Nc1ccc(NC(C)=O)cc1)C(=O)c1ccc(C(=O)c2ccccc2)cc1	7.69%
Clc1ccc(-n2ncc3c(NCCCn4ccnc4)ncnc32)cc1	-26.1%
CC(C)c1ccc(NC(=O)C2CCN(S(C)(=O)=O)CC2)cc1	-1.47%
COc1ccc(OC)c(S(=O)(=O)Nc2cc(C)on2)c1	17.2%
CC(C)(C)c1ccc(OCC(=O)Nc2ccncc2)c(Br)c1	0.734%
CC(=O)c1ccc(NC(=O)Nc2ccc3c(c2)nc(C)n3C)cc1	9.94%
CC(CNc1ccc([N+](=O)[O-])c2cccnc12)Nc1c([N+](=O)[O-])cc(C(F)(F)F)cc1[N+](=O)[O-] (centres unmarked)	6.69%
Cn1c(NC(=O)c2cccs2)c(-c2cccs2)c(=O)c2ccccc21	2.52%
CCn1c(SCc2ccc(C(=O)O)cc2)nnc1-c1ccc(Cl)cc1	35.2%
COc1cc(S(=O)(=O)N2CCOCC2)ccc1NC(=O)COc1ccc(N(C)S(=O)(=O)c2ccc(C)cc2)cc1	-18.2%
CCN(CC)S(=O)(=O)c1ccc2c(c1)c(=O)c(C(=O)N1CCN(c3ccccc3)CC1)cn2C	-28.7%
Cc1[nH]c2ccc(-c3nnc(SCC(=O)N4CCCc5ccccc54)o3)cc2c1C	11.1%
Cc1cc(=O)oc2cc(OCC(=O)Nc3c(Cl)cccc3C(F)(F)F)ccc12	6.04%
COc1ccc(C(=O)C2CCCN(Cc3ccc(C#CCCO)cc3)C2)c(OC)c1 (centres unmarked)	-51.2%
Nc1nonc1-n1nnc(C(=O)N/N=C/c2cccc(F)c2)c1-c1ccccc1	-41.6%
CC(C)Oc1ccc(/C=N/NC(=O)C2CCCN2S(=O)(=O)c2ccc(Cl)cc2)cc1 (centres unmarked)	-8.96%
Cc1ccc(OCC(O)Cn2c(=N)n(CCN3CCOCC3)c3ccccc32)cc1.Cl (centres unmarked)	-43.6%
O=C1CC(NS(=O)(=O)c2cccs2)CN1c1ccc(Cl)cc1 (centres unmarked)	-14.1%
O=C(Cc1ccccc1)N1CCC(c2nc(-c3ccc(F)cc3)no2)CC1	-50.6%
O=C1CC(=O)Nc2cc(S(=O)(=O)Nc3cccc(C(F)(F)F)c3)ccc2N1	5.79%

SMILES	hERG current change (%, negative = inhibition) at 10uM
CCOc1ccc(-n2c(O)c(/C=N/c3ccnn3Cc3ccncc3)c3ccccc3c2=O)cc1	22.8%
CCCSc1nc(N)cc(=O)[nH]1	4.03%
CCN1/C(=C2\OC(=S)N(C)C2=O)C=Cc2ccccc21	10.3%
O=C(CCNC(=O)c1ccccc1Cl)NCCC1=CCCCC1	13.4%
CCOC(=O)C1=C(C)NC(C)=C(C(=O)OCC)C1C(=O)OCC(=O)N1CCc2ccccc21	-1.82%
C[C@@H](C(=O)NCCc1ccc(F)cc1)N1C(=O)N2CCc3c([nH]c4ccccc34)[C@@]2(C)C1=O	-18.9%
CC1CC(C#N)N(N(C)C)C1=C(C#N)C#N (centres unmarked)	11.3%
CCN1C(=O)/C(=C\c2ccco2)C(C(=O)OC)=C1C	10.4%
OC1CCCN(Cc2c3ccccc3cc3ccccc23)C1 (centres unmarked)	-1.54%
CCOc1cccc(C(=O)Nc2ccccc2N2CCN(C(=O)C(C)C)CC2)c1	-70%
CC1CCCC/C1=N\NC(=S)Nc1ccccc1 (centres unmarked)	-14.7%
Cc1cc(C)cc(N(CCC#N)C(=O)COC(=O)c2ccc(OCc3c(C)noc3C)cc2)c1	-7.01%
O=C(N/N=C\c1ccc(F)cc1)c1ccc(F)cc1	6.28%
CCc1nnc(SCC(=O)Nc2ccc(NC(C)=O)cc2)n1-n1cccc1	15.8%
Cc1cccc(-c2noc(CN(C)S(=O)(=O)c3cc(Cl)ccc3Cl)n2)c1	-2.87%
CC(C)NC(=O)COc1ccc(S(=O)(=O)N2CCOCC2)cc1	14.6%
O=C(C1CCN(S(=O)(=O)c2ccc3ccccc3c2)CC1)N1CCN(c2ncccn2)CC1	-29.2%
O=C(COc1cc(O)c2c(=O)cc(-c3ccccc3)oc2c1)c1ccccc1	10.3%
CC(C)Cn1c(-c2csc3ccccc23)n[nH]c1=S	2.01%
CCOC(=O)CN(C(=O)CSc1nnc(CNc2ccc(F)cc2)n1CC)c1ccc(F)cc1	-42.9%

Reference: article PMC4336329 (PLoS ONE, 2015)
